Measurements: PubChem BioAssay AID360 (National Center for Advancing Translational Sciences (NCATS), 2006)
Among all 48,000 compounds or so, about 550 (1.1%) were called active. Not shown: some 4% with an inconclusive outcome. Cut-off read from the data, not from the text of the source: active = potency below about 15 µM; inconclusive = mostly about 16 µM to 33 µM; inactive = weaker than that. Some of the results follow.

Biological target: Lysosomal acid glucosylceramidase (Homo sapiens) (UniProt P04062)
Sequence of UniProt P04062 (P04062 whole entry, looked up): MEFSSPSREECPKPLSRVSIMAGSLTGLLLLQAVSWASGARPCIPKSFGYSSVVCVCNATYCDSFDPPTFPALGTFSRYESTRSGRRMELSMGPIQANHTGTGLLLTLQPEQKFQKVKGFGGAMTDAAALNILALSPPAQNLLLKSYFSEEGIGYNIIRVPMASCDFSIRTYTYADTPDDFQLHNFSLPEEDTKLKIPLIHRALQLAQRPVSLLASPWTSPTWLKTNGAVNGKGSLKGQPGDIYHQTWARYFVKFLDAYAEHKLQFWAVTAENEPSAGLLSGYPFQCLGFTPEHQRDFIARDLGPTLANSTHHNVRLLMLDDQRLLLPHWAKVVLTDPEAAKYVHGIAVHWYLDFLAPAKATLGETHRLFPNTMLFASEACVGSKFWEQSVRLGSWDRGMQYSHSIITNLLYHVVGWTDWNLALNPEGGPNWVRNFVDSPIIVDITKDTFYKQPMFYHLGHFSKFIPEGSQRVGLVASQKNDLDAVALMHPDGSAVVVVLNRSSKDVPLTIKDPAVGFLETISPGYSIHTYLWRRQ
Assay: Glucocerebrosidase;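 note: the screen sought inhibitors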
Conditions: purified enzyme, resorufin glucoside fluorescence (screen aimed at inhibitors), 20 min; series mostly up to 77 µM
Procedure, shortened: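 Wild-type enzyme at 0.2 nM final in 50mM citric acid/KH2PO4, 10mM sodium taurocholate, 0.01% tween-20, pH 5.9, with resorufin beta-D-glucopyranoside at 30 uM final. Compounds titrated, 20 min at RT, red fluorescence read; AC50 from titration.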
Potency is the fitted concentration of half-maximal effect.

Potency, inactive:
CCOC(=O)CCc1c(C)n(CC)c2cc(-c3ccccc3OC)nn2c1=O > 76.9 µM
CCC(=NC(C)c1ccccc1)c1c(O)n(C)c(=O)n(C)c1=O (stereo not given) > 76.9 µM
CCc1ccc(S(=O)(=O)NCc2cn3cccc(C)c3n2)s1 > 76.9 µM
Cn1c(=O)n(Cc2ccco2)c(=N)c2c3c(sc21)CCC3 > 76.9 µM
Nc1c(NC2CCCCC2)c2ccccc2oc1=O > 76.9 µM
Cc1ccc(-c2nnn(CC(=O)Nc3ccccc3-c3ccccc3)n2)c(-n2cnnn2)c1 > 76.9 µM
CCCNC(=O)c1ccccc1NS(=O)(=O)c1ccc(OC)c(OC)c1
CC(C)CCOc1ccc(C(=O)NCCC(=O)N2CCOCC2)cc1 > 76.9 µM
COc1ccccc1NC(=O)NCC(=O)Nc1ccc(F)c(F)c1 > 76.9 µM
CCN(CC)C(=O)c1sc2nc(-c3ccncc3)[nH]c(=O)c2c1C > 76.9 µM
Cn1c(SCC(=O)c2ccc(F)cc2)nc2cccnc21 > 76.9 µM
COc1ccccc1C(=O)NC(C)C(c1cccs1)N1CCN(C)CC1 (stereo not given) > 76.9 µM
CN(C)c1oc(COc2ccccc2F)nc1C#N > 76.9 µM
CCOc1ccc(-n2c(SCC(=O)NC(C)CC)nc3n[nH]c(C)c3c2=N)cc1 (stereo not given) > 76.9 µM
O=C(COc1ncnc2c(Cl)cc(Cl)cc12)N1CCCCC1 > 76.9 µM
O=C(Nc1sccc1C(=O)N1CCOCC1)c1cccnc1 > 76.9 µM
O=C(CCc1nc(-c2ccccc2F)no1)NC1CCCCCC1 > 76.9 µM
Cn1c(=O)c2cc(NC(=O)c3ccccc3Cl)c(=O)oc2n(C)c1=O > 76.9 µM
O=C1CCCc2nc(NCc3ccco3)ncc21 > 76.9 µM
CCOC(=O)Cc1c(C)nc(-c2ccccc2)[nH]c1=O > 76.9 µM
CCS(=O)(=O)N1CCC(C(=O)NCc2ccc(F)cc2Cl)CC1 > 76.9 µM
Nc1nc(-c2ccccc2)nn1C(=O)Cc1ccccc1 > 76.9 µM
C1CCC(c2nn3c(-c4n[nH]c5c4CCC5)nnc3s2)CC1
N#Cc1nc(-c2ccco2)oc1NCCCn1ccnc1 > 76.9 µM
CCOC(=O)c1ccc(CNC(=O)C2CCCCC2C(=O)OCC(F)(F)F)o1 (stereo not given) > 76.9 µM
Cc1cc(C)cc(OC(=O)N2CCOCC2)c1 > 76.9 µM
COc1cccc(-n2c(SCc3c(C)noc3C)nnc2-c2cccc(S(=O)(=O)N(C)C)c2)c1 > 76.9 µM
Cc1noc(C)c1S(=O)(=O)N1CCC(C(=O)Nc2ccccn2)CC1 > 76.9 µM
O=C(NCCNC(=O)c1ccco1)c1cccc(F)c1 > 76.9 µM
CCCCC(=O)NC1(C(F)(F)F)C(=O)Nc2c1c(=O)[nH]c(=O)n2Cc1ccco1 (stereo not given) > 76.9 µM
CCCCOc1ccc(C2CC(=O)NC2=O)cc1 (stereo not given) > 76.9 µM
O=S(=O)(Cc1ccccc1)N1CCN(C/C=C/c2ccccc2)CC1 > 76.9 µM
CC1(C)CC(=O)C2=C(C1)N(c1cccc(O)c1)C1=C(C2)C(=O)CC(C)(C)C1 > 76.9 µM
Cc1cc(C(=O)OCC(=O)Nc2ncc(C(F)(F)F)cc2Cl)c(C)o1 > 76.9 µM
COc1ccc(OC)c(S(=O)(=O)N2CCC(C(=O)NCCC3=CCCCC3)CC2)c1 > 76.9 µM
CCOC(=O)N1CCN(Cc2nc(-c3ccc(C)cc3)no2)CC1 > 76.9 µM
CCC(NC(=O)c1ccccc1NC(=O)c1ccccc1)C(=O)O (stereo not given) > 76.9 µM
CCCS(=O)(=O)N1CCCC(C(=O)N2CCC(Cc3ccccc3)CC2)C1 (stereo not given) > 76.9 µM
Cc1ccc(-n2c(C)cc3c2CCCC3=O)cc1 > 76.9 µM
CS(=O)(=O)N1CCN(C(=O)c2ccccc2F)CC1 > 76.9 µM
COc1ccc(CC(NC(C)=O)C(=O)NC2CCN(C(=O)Nc3ccc(C#N)cc3)CC2)cc1OC (stereo not given) > 76.9 µM
CCCNC(=O)NCCc1ccncc1 > 76.9 µM
CCCCN(CC)S(=O)(=O)c1ccc(C(=O)Nc2nnc(CSC)o2)cc1
C=CCSc1nnc(C)n1-c1ccc(Cl)cc1 > 76.9 µM
O=C1NC(c2cccs2)Nc2sc3c(c21)CCCC3 (stereo not given) > 76.9 µM
CC1(C)CC(n2c(=S)[nH]c3ccccc3c2=O)CCO1 (stereo not given)
CCOC(=O)CNC(=O)CSc1nnc(-c2ccccc2OC)n1CC > 76.9 µM
O=C(O)CSc1nnc(C2CC2)n1-c1ccccc1 > 76.9 µM
Cc1nn(-c2ccc(C(=O)Nc3nnc(C4CC4)s3)cc2)c(C)c1Cl > 76.9 µM
Cn1c(=O)[nH]c(=O)c2c1nc(Br)n2Cc1ccccc1Cl > 76.9 µM
COC(=O)[C@@H]1C2CCC(C(=O)Nc3ccccc3)(CC2)[C@@H]1C(=O)OC > 76.9 µM
CCCc1ccc(OCCNC(C)=O)cc1 > 76.9 µM
COc1ccc(-c2ccc(C(=S)N3CCN(C(C)=O)CC3)o2)cc1 > 76.9 µM
CCOC(=O)c1cnc(-n2nc(C)cc2C)nc1Nc1cccc(C(=O)O)c1 > 76.9 µM
CC(=O)c1c(C)n(-c2ccccc2)c2ccc(O)cc12 > 76.9 µM
O=S1(=O)CC(O)C(NCc2ccco2)C1 (stereo not given) > 76.9 µM
COc1ccc2nc(NC(=O)c3ccc(Br)s3)sc2c1 > 76.9 µM
c1ccc(/N=C2\N=C(Nc3ccccn3)c3ccccc32)nc1 > 76.9 µM
CCN(CC)C(=O)CSc1nnc(-c2ccccc2)n1-c1ccccc1 > 76.9 µM
CCOC(=O)N1CCN(C(=O)c2ccc3c(=O)n4c(nc3c2)CCCCC4)CC1 > 76.9 µM
